# The other results are listed elsewhere or left out. The energies were worked out here from pooled read counts, against the library average; single values are noisy.
# Biological target: T1, Pho4 (S. cerevisiae) (UniProt P07270)
# T1 sequence: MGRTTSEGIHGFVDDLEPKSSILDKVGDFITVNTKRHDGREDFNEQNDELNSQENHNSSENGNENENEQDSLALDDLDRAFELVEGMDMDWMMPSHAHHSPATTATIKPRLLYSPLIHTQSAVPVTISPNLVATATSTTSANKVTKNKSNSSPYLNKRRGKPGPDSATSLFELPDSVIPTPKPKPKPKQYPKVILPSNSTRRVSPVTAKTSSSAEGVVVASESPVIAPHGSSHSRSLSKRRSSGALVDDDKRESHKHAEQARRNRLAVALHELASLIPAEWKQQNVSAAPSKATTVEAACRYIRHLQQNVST
# Experiment: relative binding free energy (BET-seq); higher = weaker binding
# Settings: reference: library average
row,Sequence,relative binding free energy [kcal/mol]
1,GAGTGCACGTGAGGCG,0.23
2,GGTTTCACGTGGAATG,0.39
3,TTAATCACGTGTAGGC,0.24
4,CTGGTCACGTGGTTAA,0.04
5,AACTACACGTGTGTTT,0.2
6,CTATCCACGTGTGTGT,0.04
7,GTTTGCACGTGATAGT,0.09
8,GATGTCACGTGTTTTC,0.13
9,ACGGTCACGTGGTATG,-0.07
10,TCTGGCACGTGACGGG,0.07
11,AGAGTCACGTGCCGGG,0.02
12,GGGTACACGTGTTTTG,0.14
13,TATTGCACGTGACTTT,0.16
14,GTTACCACGTGAGTTT,0.29
15,ATAGGCACGTGCCGGT,-0.17
16,TCGTGCACGTGAAATG,0.24
17,AGGTGCACGTGACGTT,0.06
18,TGCTGCACGTGGCTAG,0.02
19,GTACACACGTGTGAGT,0.11
20,ATATCCACGTGGGGTG,-0.22
21,GAGGCCACGTGTTAGT,0.06
22,GTATACACGTGGTAAG,-0.1
23,TATGACACGTGATGAT,0.15

row,Sequence,relative binding free energy [kcal/mol]
1,AATATCACGTGGTATA,0.11
2,GTCTACACGTGGTTTG,0.24
3,ATGTGCACGTGTGCGG,-0.04
4,ATACGCACGTGTGGGG,-0.08
5,AAGCTCACGTGTAGTG,0.15
6,GGCGACACGTGTGAGG,0.1
7,ATAATCACGTGGATTT,0.11
8,TGCTGCACGTGTGGCT,0
9,ATGGCCACGTGGTAAG,-0.03
10,AGTGACACGTGTTCTG,-0.13
11,GTAGTCACGTGCGGGC,0.19
12,TGGTTCACGTGGGCGG,0.17
13,ACCTTCACGTGTGGTT,0.31
14,ACTGTCACGTGGGCGT,-0.2
15,TAAATCACGTGGGTCA,0.03
16,TGAGACACGTGCTGGG,-0.04
17,GTATGCACGTGAGAGT,0.12
18,TCAGGCACGTGGTTGG,-0.08
19,ATAGGCACGTGTAGGC,-0.04
20,TGTTGCACGTGTGGGG,0.08
21,TTATACACGTGTTAGC,0.08
22,AGGTGCACGTGGAGAC,-0.03
23,GGTATCACGTGTTAAA,0.21

row,Sequence,relative binding free energy [kcal/mol]
1,AATTTCACGTGTGTGT,0.25
2,TGGTACACGTGTTTGG,0.1
3,ATAATCACGTGGTTCG,0.16
4,AGTAGCACGTGTCGAG,0
5,GATGTCACGTGGCAGG,0.1
6,GGACGCACGTGCAGGT,-0.07
7,TGATTCACGTGGGTTA,0.22
8,TATTACACGTGGTCGG,-0.04
9,TTAGACACGTGTAATG,0.15
10,GGCCACACGTGGAGGG,-0.03
11,AGGGTCACGTGGGGTT,-0.03
12,AGGTGCACGTGTATAG,-0.11
13,GAAATCACGTGAGTGT,0.39
14,TATATCACGTGAGTGT,0.36
15,GCGGTCACGTGGTGTT,0.02
16,GGTATCACGTGCTAGT,0.05
17,GCATACACGTGTTAGG,0.11
18,GTGGTCACGTGTGTTG,0.11
19,GGAGACACGTGGAGGT,-0.01
20,ATTAGCACGTGAGGCG,0.07
21,CTGAGCACGTGGCGTG,-0.25
22,TGTTGCACGTGTAGAA,-0.01
23,GGGTCCACGTGTATTT,0.22

row,Sequence,relative binding free energy [kcal/mol]
1,GTATACACGTGGTGAA,0.1
2,GAATACACGTGTAGTG,0.25
3,AGTAGCACGTGGCGTT,-0.15
4,TTCGGCACGTGAGGAA,0.15
5,GTAATCACGTGGTTCG,0.08
6,AGAAGCACGTGTGGGG,-0.07
7,TGAATCACGTGTTGGG,0.23
8,AAATGCACGTGGAGTG,-0.04
9,CGCTTCACGTGTGTGG,0.21
10,TTTCGCACGTGTTTTA,0.07
11,CAGGGCACGTGAGGTT,0.01
12,GTTTGCACGTGTATCG,0.18
13,GGTATCACGTGAAGAT,0.42
14,ATAGTCACGTGTTCGT,-0.01
15,ACATTCACGTGTATTT,0.26
16,TAAGTCACGTGTGTTG,0.04
17,GATTACACGTGGTTAT,0.1
18,CGAGACACGTGTGTGG,0.12
19,GTTCGCACGTGAGTTT,0.26
20,CAAAGCACGTGGTGGA,0.07
21,TATTTCACGTGAGCAG,0.48
22,TTTGGCACGTGAGGCC,0.15
23,GTGAGCACGTGTGGGG,-0.06

row,Sequence,relative binding free energy [kcal/mol]
1,TGTGGCACGTGAGGTT,0.17
2,GTGGGCACGTGTGATC,-0.01
3,GGTTACACGTGTTAGT,0.07
4,GGAGTCACGTGAAAAG,0.33
5,GGGGTCACGTGTATCG,0.15
6,TTTCTCACGTGGCCGG,0.17
7,GTGATCACGTGGGCAT,-0.13
8,TGTAGCACGTGCAGAG,-0.14
9,GGTGGCACGTGGCATA,-0.09
10,CATTACACGTGGTATT,0.04
11,TCTATCACGTGGTGGA,0.18
12,TGGACCACGTGTGTTA,0
13,GGTTTCACGTGTATTA,0.34
14,ATAGTCACGTGAACGG,0.27
15,GGCTTCACGTGCTGGG,0.27
16,GGCGACACGTGAGCGG,0.22
17,TTATCCACGTGGGGTG,-0.14
18,GATTTCACGTGAGTTG,0.4
19,TGACGCACGTGTGTGA,-0.03
20,GAGTGCACGTGGTATG,-0.08
21,TATTCCACGTGTAGTT,-0.06
22,TCTCACACGTGTGGGG,0.07
23,CTTATCACGTGGTGCG,0.2
